About 1,700 (3.3%) of roughly 52,000 compounds were called active. Rule as the data show it: active = survival mostly below about 52% (no sharp cut-off); inactive = mostly above about 56%. This is one part of the list.

The assay has as its system Wild type. As to the kind of experiment: growth inhibition of S. aureus wild type versus tarO mutant, primary screen, teichoic acid synthesis inhibitors, RN4220, OD600 (AID 463173). The conditions noted are these: S. aureus RN4220 wild type/DeltatarO growth, OD600, 18 h, hits give low values, screened at 18.75 µg/mL (by protocol).
Consider `COc1ccc(C(=O)Nc2ccc3oc(-c4ccc(OC)cc4)nc3c2)cc1`, for which the survival is inactive: 80%.

Take `CCOC(=O)c1ccc(NC(=O)C2CC(=O)N(c3ccc(C(C)C)cc3)C2)cc1` (centres undefined): the survival is inactive: 80%.

Regarding `CCCC(=O)Nc1cc(-c2nc3cccnc3s2)ccc1C`, the survival is inactive: 106%.

`Cc1ccc(NC(=O)NCC2CCN(Cc3cccc(Cl)c3)CC2)cc1Cl`: the survival is active: -6%.

In the case of `COCc1cc(C)n(CC(N)=O)c(=O)c1C#N`, the survival is inactive: 106%.

As for `CCc1cccc(NC(c2nnc(-c3ccccc3)o2)c2ccc(F)cc2Cl)c1` (centres undefined), the survival is inactive: 70%.

With `COc1cccc(-n2c(-c3ccco3)nc3c(cnn3-c3ccc(C)cc3)c2=O)c1`, the survival is inactive: 56%.

Turning to `CCN1c2ccccc2-c2nc(SCC(=O)Nc3c(C)cc(C)cc3C)ncc2S1(=O)=O`, the survival is inactive: 75%.

As to `CCOc1ccc(NS(=O)(=O)c2ccc3[nH]cc(C(=O)NC4CCCC4)c(=O)c3c2)cc1`, the survival is inactive: 55%.

For `CCOc1ccc(C(=O)c2cn(Cc3ccc(OC)cc3)c3cc(OC)c(OC)cc3c2=O)cc1`, the survival is inactive: 134%.

Turning to `Cc1ccc(C(=O)CSc2nnc(-c3ccccc3)n2-c2ccccc2)cc1`, the survival is inactive: 79%.

As to `CCn1c(C(C)C)n[nH]c1=S`, the survival is inactive: 102%.

On to `Cc1cccc(NC(=O)CCNS(=O)(=O)c2cccc3nonc23)c1`, for which the survival was inactive: 62%.

On to `CC(=O)Nc1ccc(S(=O)(=O)NC2(C(F)(F)F)C(=O)Nc3c2c(=O)[nH]c(=O)n3-c2ccc(C)c(C)c2)cc1` (centres undefined), for which the survival was inactive: 71%.

For the molecule `CC1=C(C(=O)NCc2ccc(C)cc2)C2(CCCCC2)OC1=O`, the survival was inactive: 65%.

As to `Cc1ccc2cccc(NC(=O)C(C)Oc3ccc(C)c(C)c3)c2n1` (centres undefined), the survival was inactive: 83%.

As to `CCOc1ccc(NC(=O)CSc2ncc3c(n2)-c2cc(Cl)ccc2N(C)S3(=O)=O)cc1`, the survival is active: -3%.

Turning to `Cc1noc(Cn2c(=O)c3ccccc3n(CC(=O)Nc3ccc(Cl)cc3)c2=O)n1`, the survival was inactive: 80%.

Take `O=C(Nc1cc(Cl)ccc1Cl)C1(c2cccs2)CCOCC1`: the survival was inactive: 105%.

On to `O=C(CCS(=O)(=O)c1nc(-c2ccc3c(c2)OCO3)cc(C(F)(F)F)n1)Nc1ccc(F)c(Cl)c1`, for which the survival is inactive: 32%.

On to `CN(C)c1ccc(C(CNS(=O)(=O)c2ccc(F)cc2)N2CCCC2)cc1` (centres undefined), for which the survival was inactive: 124%.

As to `COc1ccc(Nc2ncc(C(=O)Nc3cc(Cl)c(OC)cc3OC)c3ccccc23)cc1`, the survival is inactive: 99%.

As to `Cc1ccc(C)c(C2C(C#N)=C(N)OC3=C2C(=O)CCC3)c1` (centres undefined), the survival is inactive: 107%.

For `O=c1c2cc3c(cc2n(Cc2cccc(Cl)c2)c(=O)n1Cc1nc(-c2ccccc2)no1)OCO3`, the survival was inactive: 55%.

For the molecule `CCOc1ccccc1C(=O)Nc1ccccc1`, the survival was inactive: 106%.

For `CC(=O)N1CCCc2cc(S(=O)(=O)N3CCCC(C(=O)Nc4cccc(F)c4)C3)ccc21` (centres undefined), the survival is inactive: 85%.

For `COc1ccc(NC(=O)CCNS(=O)(=O)c2cccc3nonc23)c(OC)c1`, the survival is inactive: 67%.

As to `COc1ccc(N2CCN(C(=O)c3ccc(Nc4nc5ccccc5n5nnnc45)cc3)CC2)cc1`, the survival was inactive: 95%.

`CCN1CCCC1CNC(=O)c1c(O)c2c([nH]c1=O)CCCC2` (centres undefined): the survival is inactive: 111%.

Take `CN1C(=O)C(O)N(c2ccc(Cl)c(Cl)c2)C1=O` (centres undefined): the survival was inactive: 100%.

Take `O=C(Nc1ncc(Cc2ccc(Cl)cc2)s1)c1ccc2c(c1)CC(c1ccccc1)OC2=O` (centres undefined): the survival was inactive: 87%.

Consider `CCOC(=O)CNC(=O)c1cc2c(=O)n3cccc(C)c3nc2s1`, for which the survival is inactive: 156%.

As for `Cc1ccc(NC(=O)CCNS(=O)(=O)c2ccc3c(c2)CCN3C(=O)C2CC2)c(Cl)c1`, the survival is inactive: 72%.

Take `CCCn1c2ccccc2c2cnn(CC(=O)NCCc3ccc(OCC)c(OCC)c3)c(=O)c21`: the survival is inactive: 76%.

Take `O=C1CN=C(Nc2cccc(C(F)(F)F)c2)N1C1CCCC1`: the survival is inactive: 125%.

Take `COc1cccc(CNC(=O)CSc2nc3ccccc3nc2Cc2ccc(C)cc2)c1OC`: the survival is inactive: 81%.

Turning to `CC1(C)Cc2ccccc2-c2nnc(-c3ccccc3)n21`, the survival was inactive: 95%.

For the molecule `COc1cccc(C2CC(=O)Nc3c2c(=O)nc2c(C)cccn32)c1` (centres undefined), the survival is inactive: 70%.

As for `CCOc1ccccc1NC(=O)CSc1ncc(S(=O)(=O)c2ccc(C(C)(C)C)cc2)c(=O)[nH]1`, the survival is inactive: 83%.

Consider `O=C(CN(C(=O)Cn1nnc(-c2ccc(F)cc2)n1)c1ccccc1C(F)(F)F)NCc1ccco1`, for which the survival was inactive: 116%.

Regarding `CCCCNC(=O)CCn1c(=O)c2cccn2c2ccc(F)cc21`, the survival is inactive: 77%.

`CC1CCN(c2nn3c(=O)c(C(=O)NCc4ccc(Cl)cc4)cnc3s2)CC1`: the survival is inactive: 72%.

As to `Cc1noc(Cn2c(=O)c3ccccc3n(CC(=O)Nc3cccc(Cl)c3C)c2=O)n1`, the survival was inactive: 70%.

Turning to `CC(=O)N1CCCc2cc(S(=O)(=O)N(C)CC(=O)Nc3ccc(C)cc3C)ccc21`, the survival is inactive: 72%.

Consider `CCOc1ccccc1NC(=O)C1CCN(c2ncccn2)CC1`, for which the survival was inactive: 111%.

Turning to `N#Cc1nc(/C=C/c2ccc(F)cc2)oc1N1CCN(c2ccccc2)CC1`, the survival was inactive: 80%.

Turning to `CC(C)c1ccc(OCC(=O)Nc2c(Cl)ccc3nsnc23)cc1`, the survival was inactive: 48%.

With `Cc1ccccc1-n1cc(-c2ccccc2)nc1SCC(=O)Nc1ccc(F)cc1`, the survival is inactive: 69%.

`CC(C)C(NC(=O)OCc1ccccc1)C(=O)N1CCOCCOCCOCC1` (centres undefined): the survival is inactive: 101%.

`COc1ccc(-n2c(=O)c3c4c(sc3n(Cc3cc(C)ccc3C)c2=O)CN(C(C)=O)CC4)c(OC)c1`: the survival was inactive: 129%.

As for `O=C(Nc1cccc(NC(=O)c2ccc(Br)o2)c1)c1ccccc1`, the survival is inactive: 78%.

As to `COc1cccc(C2c3c(oc4ccc(C)cc4c3=O)C(=O)N2CCCN2CCOCC2)c1OC` (centres undefined), the survival was inactive: 131%.

As for `Cc1cccc(-c2noc(-c3cccnc3NCc3ccco3)n2)c1`, the survival was inactive: 74%.

Turning to `Cc1ccc(CNc2nc3ccccc3n3c(C)nnc23)cc1`, the survival is inactive: 87%.

Consider `CCCn1c2ccccc2c2cnn(CC(=O)N3CCC(C(=O)OCC)CC3)c(=O)c21`, for which the survival was inactive: 87%.

As for `COc1ccccc1NC(=O)N1CCNCC1`, the survival was inactive: 107%.

For the molecule `COc1ccc(C2C(=O)N(C3CCC(C)CC3)CC(=O)N2Cc2ccccc2Cl)cc1OC` (centres undefined), the survival is inactive: 71%.

In the case of `COC(=O)C1(C(C)C)NC(c2ccccc2OC)C2C(=O)N(C)C(=O)C21` (centres undefined), the survival is inactive: 104%.

Consider `O=C(NCCN1CCN(c2ccccc2)CC1)Nc1ccccc1Br`, for which the survival was inactive: 76%.

As to `Cc1ccc(Sc2c(C)nn(C(=O)COc3ccc(F)cc3)c2C)cc1`, the survival was inactive: 85%.

On to `Cc1cccc(CNC(=O)C2CCN(c3nnc(-n4c(C)ccc4C)s3)CC2)c1`, for which the survival is inactive: 83%.

Take `Cc1ccc(N2CC(NC(=O)c3ccc(S(=O)(=O)N4CCOCC4)cc3)CC2=O)cc1C` (centres undefined): the survival was inactive: 128%.

For `Cc1cc2oc(=O)c(CC(=O)O)c(C)c2c2occ(-c3ccc(F)cc3)c12`, the survival is inactive: 56%.

On to `Cc1cccc(-c2noc(CN(C(=O)c3ccccc3Cl)C(C)C)n2)c1`, for which the survival was inactive: 86%.

Turning to `O=C(c1ccc2c(c1)OCCO2)N(Cc1cccnc1)c1nc2c(F)cccc2s1`, the survival was inactive: 83%.

For the molecule `COc1ccc(CCNC(=O)CCCn2c(=O)c3ccccc3n(Cc3ccc(F)cc3Cl)c2=O)cc1OC`, the survival was inactive: 125%.

As to `Cn1c(C(=O)NCCc2ccccc2)cc2c(=O)n3ccccc3nc21`, the survival is inactive: 80%.

Turning to `Cc1ccc(CNc2nc3ccccc3c3nc(-c4cccc(C)c4)nn23)cc1`, the survival is inactive: 26%.

As to `COc1ccc(Cn2c(CNS(=O)(=O)c3ccc4c(c3)CCCC4)nc3cccnc32)cc1`, the survival is inactive: 133%.

Turning to `CC(=O)Nc1ccc2c(c1)C(=O)N(c1ccccc1)C2=O`, the survival was inactive: 105%.

With `COc1ccc(CNC(=O)CCc2c(C)nn(-c3ccc(N4CCCCC4)nn3)c2C)c(OC)c1`, the survival was inactive: 64%.

Turning to `Cc1ccc2c(c1)c1c(c(=O)n(Cc3ccccc3)c(=O)n1Cc1cccc(C(F)(F)F)c1)n2C`, the survival is inactive: 68%.

On to `O=C(c1cnc(N2CCCCC2)c2ccccc12)N1CCN(c2ccccc2F)CC1`, for which the survival was inactive: 70%.

For `CCCSc1oc(-c2cccs2)nc1S(=O)(=O)c1ccc(Cl)cc1`, the survival is inactive: 66%.

Turning to `O=C(CSC1=Nc2ccccc2N=C(c2ccc(F)cc2)C1)NCc1ccccc1`, the survival was inactive: 129%.

With `CCOC(=O)c1c(N)sc2c1CN(C(=O)OC)N(C(=O)OC)C2`, the survival is inactive: 113%.

Turning to `Cc1ccc(-n2ncc(C(=O)NCCCN3CCN(c4cccc(Cl)c4)CC3)c2-n2cccc2)cc1`, the survival is inactive: 59%.

Regarding `CC(=O)N1CCc2cc(CNS(=O)(=O)c3ccc(Br)s3)ccc21`, the survival was inactive: 45%.

On to `c1csc(C2=NC(c3ccncc3)=Nc3ccccc3N2)c1`, for which the survival was inactive: 93%.

For the molecule `CC1CCCN(Cc2cn3c(-c4cccc(Br)c4)nnc3s2)C1` (centres undefined), the survival was inactive: 71%.

With `O=C(NCCc1ccc(Cl)cc1)c1ccc(Cn2c(=O)c3cccn3c3cccnc32)cc1`, the survival is inactive: 84%.

Regarding `CCOc1ccc(C(=O)NCCc2sc3nc(-c4ccc(Cl)cc4)nn3c2C)cc1OCC`, the survival was inactive: 82%.

As for `COc1cccc(CNC(=O)c2nn(-c3ccccc3Cl)nc2CO)c1`, the survival was inactive: 92%.

On to `Cc1ccccc1C(=O)NCc1nc2cccnc2n1Cc1ccccc1`, for which the survival is inactive: 51%.

As to `CC(C(=O)Nc1cc(C(F)(F)F)ccc1Cl)n1nnc2sc3c(c2c1=O)CCCC3` (centres undefined), the survival is inactive: 71%.

Take `Cc1ccc2oc(-c3ccc(C)c(NC(=O)c4ccc(C(C)(C)C)cc4)c3)nc2c1`: the survival was inactive: 125%.

Take `CCOc1ccccc1C(=O)Oc1c(Sc2ccccc2)c(C)nn1C(C)(C)C`: the survival was inactive: 64%.

As to `COc1ccc(S(=O)(=O)c2c(Nc3ccc(F)cc3)sc(C(=O)c3ccc4c(c3)OCO4)c2N)cc1`, the survival was inactive: 135%.

Turning to `Cc1ccc(-c2csc(=Nc3ccccc3)n2Cc2ccc3c(c2)OCO3)cc1C`, the survival is inactive: 91%.

The values above are taken from PubChem BioAssay AID463173 (ICCB-Longwood Screening Facility, Harvard Medical School, 2010).
